The text below walks through data of paper PMC9574860, “Chemical Toolkit for PARK7: Potent, Selective, and High-Throughput” (Journal of Medicinal Chemistry, 2022).

Screen size: about 7,900 compounds; about 400 (5.1%) showed an effect of 50% or more. The list shows a part of the results.

Chain of Parkinson's disease protein 7 (PARK7/DJ1) (Q99497 whole entry, looked up, the tested form may be a part): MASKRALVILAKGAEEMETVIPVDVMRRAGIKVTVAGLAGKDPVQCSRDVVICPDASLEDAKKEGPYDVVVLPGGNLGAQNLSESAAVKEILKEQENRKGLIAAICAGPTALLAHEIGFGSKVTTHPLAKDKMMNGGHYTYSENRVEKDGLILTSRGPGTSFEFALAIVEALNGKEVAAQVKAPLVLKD

The target in the assay is Parkinson's disease protein 7 (PARK7/DJ1) (human, UniProt Q99497). Put plainly: primary screen, percent inhibition; read as competition with a fluorescent probe by fluorescence polarization; higher = more effect of the substance. The conditions noted are these: 100 µM. In a few lines:
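Covalent fragments at 100 μM final were incubated 2 h with 0.2 μM PARK7, then 20 nM probe JYQ-107 added for a further 2 h. Fluorescence polarization read at 480/520 nm; relative FP loss versus reference controls gave remaining enzyme activity.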
On to `NC1CCCN(C(=O)C=Cc2ccc(Cl)s2)C1` (stereo not shown), for which the Inhibition % worked out at 5.91%. For `N#Cc1cccc(Sc2cnccn2)n1`, the Inhibition % came out at 9.08%. The same measure for `Cc1ccc(C=C(C#N)C(N)=O)cc1F`: 5.82%; for `Nc1ccc(CN2C(=O)CSC2=O)cc1`: 10.9%. For the compound `CC(=O)Nc1ccccc1OC(=O)N(C)C`, the Inhibition % is reported as 4.68%.

Consider `Cc1ccc(-n2nc(C)c(NC(=O)CCl)c2C)cc1`, for which the Inhibition % is recorded as 4.3%. The same measure for `CSC1(CNc2cccc(C#N)n2)CCC1`: 11.9%; for `Cc1cc(C=C(C#N)C(=O)N2CCCC2)cc(C)c1O`: 4.3%; for `O=C(c1cccs1)N1CCC(CS(=O)(=O)F)CC1`: 35.6%. The figure for `O=C(Oc1ccc(-c2nnco2)cc1)N1CCCCC1` is 4.2%. The figure for `Cl.O=S(=O)(F)CC1CCCNC1` (stereo not shown) is 7.49%; for `C#CCn1c(-c2ccccn2)noc1=O` it is 17.3%. Take `N#CC(=Cc1[nH]c2ccccc2c1Cl)C(N)=O`: the Inhibition % was found to be 2.42%. The figure for `O=C(CCl)NOCc1ccccc1` is 28.6%; for `C=CC(=O)NC1COc2cc(OC)ccc2C1` (stereo not shown) it is 5.79%; for `N#Cc1cc(NCC2CCSCC2)ncn1` it is 12.1%.

Turning to `Cc1c(C=C2C(=O)N(C)c3ccccc32)cc(C#N)n1C`, the Inhibition % worked out at 6.79%. Consider `O=C(CN1CCSC1=O)Nc1ccc2[nH]ncc2c1`, for which the Inhibition % stood at 60.9%. The same measure for `Cc1ccn(S(=O)(=O)c2ccc(Cl)cc2)n1`: -3.58%. The figure for `O=S1(=O)CCCC(CCl)C1` (stereo not shown) is -4.37%; for `C=CC(=O)N1CCSCC1c1ccccc1` (stereo not shown) it is 1.86%. The same measure for `N#Cc1nnn(Cc2ccccc2)c1N`: 7.25%.

For the compound `O=c1[nH]c(-c2ccc(S(=O)(=O)F)cc2)nc2ccccc12`, the Inhibition % is 13%. Take `C=CC(=O)NCC1(C)CCOC2(CCC2)C1` (stereo not shown): the Inhibition % was 13.5%. The same measure for `CCOc1ccccc1C=C(C#N)C(N)=O`: 8.86%; for `CC1(C)OB(c2cccc(S(=O)(=O)C(F)(F)F)c2)OC1(C)C`: 2.66%. For `C=CC(=O)N1CCC(c2nccn2C)C1` (stereo not shown), the Inhibition % came to 5.02%. For `N#Cc1ncn(CC(=O)N2CCc3sccc3C2)n1`, the Inhibition % is 10.8%.

Regarding `N#CC(=Cc1ccc(N)cc1)C(=O)N1CCCC1`, the Inhibition % was 4.39%. The same measure for `O=C(CNC(=O)c1cccnc1S)Nc1ccccn1`: -0.307%; for `Cl.O=c1[nH]nc(C2CCNCC2)o1`: 7.63%; for `Cc1ccc(C=CS(=O)(=O)N2CCC(C(=O)O)CC2)cc1`: 10.7%. On to `CCCc1ccc(-c2csc(NC(=O)CCl)n2)cc1`, for which the Inhibition % was 4.59%. Turning to `O=C(CCl)NC(=O)NC1CCCC1`, the Inhibition % was determined as 21.6%.
